In patent publication US8188074B2 (priority 2001, dated 2012):

tested on: subcutaneous CaNT tumours; assay: PDT induced tumour necrosis in mice bearing subcutaneous CaNT tumours; settings: iv 1.67 μmol/kg, drug-light interval 1 h (optimal for the compound); 60 J/cm2; 72 h after illumination

| Compound | % Tumour necrosis [%] | Antitumour activity |
| --- | --- | --- |
| 3,7-(tetra-n-pentylamino)-phenothiazin-5-ium [Compound 3] | 88 ± 6 | High (High 70-100% tumour necrosis) |

same assay, conditions: iv 8.35 μmol/kg, drug-light interval 0 h (optimal for the compound); 60 J/cm2; 72 h after illumination

| Compound | % Tumour necrosis [%] | Antitumour activity |
| --- | --- | --- |
| CCCCCN(CCCCC)c1ccc2nc3ccc(N4CCCC4C)cc3[s+]c2c1 (stereo not shown) [Compound 21, 3-(2-methylpyrrolidino)-7-(N,N-di-n-pentylamino)-phenothiazin-5-ium] | 90 ± 4 | High (High 70-100% tumour necrosis) |
| CCCCCN(CCCCC)c1ccc2nc3ccc(N(CCC)CCC)cc3[s+]c2c1.[I-] [Compound 12, 3-(N,N-dipentylamino)-7-(N,N-dipropylamino)-phenothiazin-5-ium iodide] | 38 ± 14 | Low (Low 11-39% tumour necrosis) |
| 3,7-(tetra-iso-pentylamino)-phenothiazin-5-ium [Compound 8] | 74 ± 12 | High (High 70-100% tumour necrosis) |
| 3-(N,N-diethanolamino)-7-(N,N-dipentylamino)-phenothiazin-5-ium iodide [Compound 28] | 75 ± 4 | High (High 70-100% tumour necrosis) |
| CCCCCCN(CCCCCC)c1ccc2nc3ccc(N(CCC)CCC)cc3[s+]c2c1.[I-] [Compound 13, 3-(N,N-dihexylamino)-7-(N,N-dipropylamino)-phenothiazin-5-ium iodide] | 85 ± 3 | High (High 70-100% tumour necrosis) |
| CCCCCCN(CCCCCC)c1ccc2nc3ccc(N(CCCCCC)CCCCCC)cc3[s+]c2c1.[Br-] [Compound 4] | 47 ± 12 | Medium (Medium 40-69% tumour necrosis) |

same assay, conditions: iv 16.7 μmol/kg, drug-light interval 0 h (optimal for the compound); 60 J/cm2; 72 h after illumination

| Compound | % Tumour necrosis [%] | Antitumour activity |
| --- | --- | --- |
| CCCCN(CCCC)c1ccc2nc3ccc(N(CCC(C)C)CCC(C)C)cc3[s+]c2c1 [Compound 15, 3-(N,N-di-n-butylamino)-7-(N,N-di-iso-pentylamino)-phenothiazin-5-ium] | 95 ± 3 | High (High 70-100% tumour necrosis) |
| CCCN(CCC)c1ccc2nc3ccc(N(CCO)CCO)cc3[s+]c2c1.[I-] [Compound 26] | 17 ± 10 | Low (Low 11-39% tumour necrosis) |
| CCCCCCCCN(C)c1ccc2nc3ccc(N(C)CCCCCCCC)cc3[s+]c2c1.[Br-] [Compound 17] | 61 ± 11 | Medium (Medium 40-69% tumour necrosis) |
| CCCCN(CCCC)c1ccc2nc3ccc(N(CCC)CCC)cc3[s+]c2c1.[I-] [Compound 11, 3-(N,N-dibutylamino)-7-(N,N-dipropylamino)-phenothiazin-5-ium iodide] | 98 ± 2 | High (High 70-100% tumour necrosis) |
| [I-].c1cc2nc3ccc(N4CCCCC4)cc3[s+]c2cc1N1CCCCC1 [Compound 19] | 36 ± 10 | Low (Low 11-39% tumour necrosis) |
| CCCN(CCC)c1ccc2nc3ccc(N(CC)CC)cc3[s+]c2c1.[I-] [Compound 10, 3-(N,N-diethylamino)-7-(N,N-dipropylamino)-phenothiazin-5-ium iodide] | 45 ± 15 | Medium (Medium 40-69% tumour necrosis) |
| [I-].c1cc2nc3ccc(N4CCOCC4)cc3[s+]c2cc1N1CCOCC1 [Compound 22] | 17 ± 6 | Low (Low 11-39% tumour necrosis) |
| CCCN(CCC)c1ccc2nc3ccc(N4CCOCC4)cc3[s+]c2c1.[I-] [Compound 23] | 14 ± 7 | Low (Low 11-39% tumour necrosis) |
| CCN(c1ccc2nc3ccc(N(CC)C4CCCCC4)cc3[s+]c2c1)C1CCCCC1 [Compound 18, 3-((N-ethyl-N-cyclohexyl)amino)-7((N-ethyl)-N-cyclohexyl)amino-phenothiazin-5-ium] | 49 ± 14 | Medium (Medium 40-69% tumour necrosis) |
| CCCN(CCC)c1ccc2nc3ccc(N(C)C)cc3[s+]c2c1.[I-] [Compound 9, 3-(N,N-dimethylamino)-7-(N,N-dipropylamino)-phenothiazin-5-ium iodide] | 34 ± 2 | Low (Low 11-39% tumour necrosis) |
| 3,7-(tetra-n-propylamino)-phenothiazin-5-ium [Compound 1] | 93 ± 3 | High (High 70-100% tumour necrosis) |
| 3,7-(N,N-tetra-iso-butylamino)-phenothiazin-5-ium [Compound 7] | 78 ± 3 | High (High 70-100% tumour necrosis) |
| CCCCCN(CCCCC)c1ccc2nc3ccc(N4CCCCC4CC)cc3[s+]c2c1 (stereo not shown) [Compound 20, 3-(2-ethylpiperidino)-7-(N,N-di-n-pentylamino)-phenothiazin-5-ium] | 86 ± 2 | High (High 70-100% tumour necrosis) |

same assay, conditions: iv 16.7 μmol/kg, drug-light interval 1 h (optimal for the compound); 60 J/cm2; 72 h after illumination

| Compound | % Tumour necrosis [%] | Antitumour activity |
| --- | --- | --- |
| CCCCCCCN(CCCCCCC)c1ccc2nc3ccc(N(CC)CC)cc3[s+]c2c1.[I-] [Compound 16] | 25 ± 13 | Low (Low 11-39% tumour necrosis) |
| [I-].c1ccc(CN(Cc2ccccc2)c2ccc3nc4ccc(N(Cc5ccccc5)Cc5ccccc5)cc4[s+]c3c2)cc1 [Compound 29] | 40 ± 17 | Medium (Medium 40-69% tumour necrosis) |
| CCCCCN(CCCCC)c1ccc2nc3ccc(N(CCCC)CCCC)cc3[s+]c2c1 [Compound 14, 3-(N,N-di-n-butylamino)-7-(N,N-di-n-pentylamino)-phenothiazin-5-ium] | 60 ± 13 | Medium (Medium 40-69% tumour necrosis) |
| CCCCCN(CCCCC)c1ccc2nc3ccc(N4CCOCC4)cc3[s+]c2c1.[I-] [Compound 25] | 16 ± 5 | Low (Low 11-39% tumour necrosis) |
| CCCCN(CCCC)c1ccc2nc3ccc(N4CCOCC4)cc3[s+]c2c1.[I-] [Compound 24] | 10 ± 7 | None (None 0-10% tumour necrosis) |
| CCN(CC)c1ccc2nc3ccc(N(CC)CC)cc3[s+]c2c1.[Cl-] [Compound 6, ethylene blue, reference compound] | 2 ± 2 | None (None 0-10% tumour necrosis) |
